About 6,000 (1.7%) of roughly 360,000 compounds were called active. Inconclusive means that the source gave no clear call. Such entries were picked first, then a sample of the others. Calls come from the whole dose curve; as a rule, active = well fitted cell-killing curve with a large enough effect; inconclusive = small, poorly fitted or top-dose-only effect, or effect the other way; inactive = flat fitted curve, though single readings scatter. Potencies of inconclusive entries are left out as doubtful fits.
assay: qHTS for induction of synthetic lethality in tumor cells producing 2HG: qHTS for the HT-1080-NT fibrosarcoma cell line; settings: HT-1080-NT fibrosarcoma viability, CellTiter-Glo ATP luminescence, 48 h; activity, negative = less viability: at 46.1 µM (top of the series) unless noted;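 note: NT is the 2HG producing partner of a matched IDH1 knockdown line; nearly all actives have a fitted effect of over 55% in size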;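 for activity, negative = less viability: 0% = DMSO-treated cells and -100% = media-only wells without cells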
Procedure, shortened: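 Viability of the 2HG-overproducing fibrosarcoma line after 48 hours of compound exposure at 37 degrees C was determined by luminescence with CellTiter-Glo, and concentration-effect curves were then fitted and categorized.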
Potency is the fitted concentration of half-maximal effect; tags give direction and shape of the fitted curve.

| SMILES | Potency | activity, negative = less viability |
| --- | --- | --- |
| CCCCN(C)c1c(C)nc2ccc(C(=O)NCCc3c[nH]c4ccccc34)cn12 | inconclusive [cytotoxic, single point] | – |
| Cc1ccccc1NC(=O)c1ccccn1 | – | inconclusive: 26.1% |
| Cc1ccc(CN(N=Nc2nonc2N)c2nonc2N)c(C)c1 | inconclusive [cytotoxic, single point] | – |
| Oc1cccc(-c2sc3ccccc3c2-c2ccc(OCCN3CCCCC3)cc2)c1 | active: 20.6 µM | – |
| CCN(CC)c1ccc(NC(=O)c2ccccc2F)cc1 | inconclusive [cytotoxic, single point] | – |
| C/C(=N\OCC(=O)N/N=C/c1ccccc1O)c1cccs1 | inconclusive [cytotoxic, partial curve] | – |
| COc1ccccc1N1CCN(C(C)C(=O)N2CC(C)OC(C)C2)CC1 (configuration not stated) | inactive | – |
| S=C1SCN(Cc2cccnc2)CN1Cc1ccccc1 | inconclusive [cytotoxic, single point] | – |
| c1ccc(CNc2nc(NCc3ccccc3)c3sccc3n2)cc1 | inconclusive [cytotoxic, single point] | – |
| Cc1ccccc1C1c2[nH]c3ccccc3c2C[C@H]2C(=O)N(C3CC3)CC(=O)N12 (some centres not stated) | inconclusive [cytotoxic, partial curve] | – |
| COc1ccccc1OCc1n[nH]c(=S)n1Cc1ccccc1 | inactive | – |
| O=C(Nc1ccccc1)c1cc(C2CCCN(C(=O)OCc3ccccc3)C2)on1 (configuration not stated) | – | inconclusive: 3.76% [cytotoxic] |
| COc1ccc2c(c1OC)C(=O)N(c1ccc(C)cc1)C2=O | inconclusive [rising, partial curve] | – |
| COc1ccc(OC)c(-c2cnc(OC(C)(C)C)nc2OC(C)(C)C)c1 | inconclusive [cytotoxic, single point] | – |
| Cc1cccc(-c2nnc(NC(=O)c3ccc(Cl)cc3)o2)c1 | inconclusive [cytotoxic, single point] | – |
| CCCN1C(=O)SC(CC(=O)Nc2ccccc2)C1=O (configuration not stated) | inactive | – |
| CN(C)CCOCCOc1ccc(Cl)cc1C(C)(C)C | inconclusive [cytotoxic, single point] | – |
| O=C(Nc1ccc2c(c1)OCCO2)C1CCCN1S(=O)(=O)c1cccc2cccnc12 (configuration not stated) | inactive | – |
| CC(C)C[C@@H](COCc1ccc(Cl)cc1)N1CCN(C(=O)c2ccc(Cl)cc2Cl)CCC1=O | inconclusive [cytotoxic, single point] | – |
| CC(=NNC(=S)N1CC2CCC(CC2)C1)c1ccncn1 | active: 16.4 µM | – |
| CCC1=NN(C(=O)c2cccc(Br)c2)C(O)(c2ccc(Br)cc2)C1 (configuration not stated) | inconclusive [cytotoxic, single point] | – |
| Cc1ccccc1CN1C(=O)C(C)Sc2ccc(-c3ccco3)cc21 (configuration not stated) | inconclusive [rising, single point] | – |
| CC(=O)Nc1ccc(NC(=O)c2ccccc2Nc2ccccc2)cc1 | inactive | – |
| CCN(CC)C(=O)[C@H]1C[C@H](CC(=O)NCCCOC)C(=O)N2CCc3c([nH]c4cc(-c5ccco5)ccc34)[C@]12C | inactive | – |

| SMILES | Potency | activity, negative = less viability |
| --- | --- | --- |
| Cc1ccc(/C=N/NC(=O)c2cc(-c3ccccc3)nc3ccccc23)o1 | inconclusive [cytotoxic, full curve] | – |
| O=C(NC1CCCCC1)C1CCCN(S(=O)(=O)c2cccc3cccnc23)C1 (configuration not stated) | inactive | – |
| O=C1C=C(N2CCOCC2)c2ccccc2C1=O | active: 6.51 µM | – |
| Nc1nc(CCl)nc(Nc2ccccc2)n1 | active: 3.26 µM | – |
| Cc1cc(N2CCN(C)CC2)nc2ccc(NC(=S)N3CCN(c4ccc(F)cc4)CC3)cc12 | inconclusive [cytotoxic, single point] | – |
| CCCN(CC(=O)Nc1ccccc1C)C(=O)c1ccc2c(c1)S(=O)(=O)N=C1CCCCCN12 | inactive | – |
| N/C(=N\OC(=O)/C=C/c1ccccc1Cl)c1ccncc1 | inactive | – |
| O=C(N/N=C\c1ccc([N+](=O)[O-])o1)c1cncc(Br)c1 | active: 20.6 µM | – |
| O=C(NC(c1ccc(F)cc1)c1ccc2ccccc2n1)C1CCN(Cc2cccc(C(F)(F)F)c2)CC1 (configuration not stated) | active: 6.51 µM | – |
| CCCC(=O)Nc1nnc(CC(=O)N2CCCC2)s1 | inactive | – |
| O=C(C(=Cc1ccc(O)cc1)c1ccccc1)c1ccccc1 | inconclusive [cytotoxic, single point] | – |
| O=C(N/N=C/c1ccc(-c2ccc([N+](=O)[O-])cc2)o1)c1cccnc1 | inconclusive [cytotoxic, single point] | – |
| CN(c1ccc(OCC(=O)OCC(=O)Nc2ccccc2)cc1)S(=O)(=O)c1cccs1 | – | inconclusive: 30.6% |
| O=C(Nc1cccc2ccccc12)c1[nH]c(-c2ccccc2)c2c1C(=O)N(C1CC1)C2=O | inconclusive [rising, partial curve] | – |
| Cc1ccc(C)c(N2CCN(S(=O)(=O)CC34CCC(CC3=O)C4(C)C)CC2)c1 (configuration not stated) | inconclusive [cytotoxic, single point] | – |
| COc1cc2c3nnc(-c4ccccc4)c-3cn(Cc3ccccc3F)c2cc1OC | inconclusive [cytotoxic, single point] | – |
| Oc1ccc(Br)cc1/C=N/n1cnc2ccccc21 | inactive | – |
| CCOC(=O)/C(C#N)=C1/C=CNC(=O)N1 | inactive | – |
| CC1CCc2sc(C(=O)OCC(=O)NCc3ccc(F)cc3)cc2C1 (configuration not stated) | inconclusive [cytotoxic, single point] | – |
| O=C(NCc1ccccc1)C(CCc1ccccc1)n1c(=O)c(-c2ccccc2)nc2ccccc21 (configuration not stated) | inconclusive [cytotoxic, single point] | – |
| O=C(Nc1ccc(N2CCOCC2)cc1Cl)C1CCN(C(=O)OCc2ccccc2)CC1 | inconclusive [cytotoxic, single point] | – |
| COc1cc(/C=C2/C(=O)N(c3ccc(C)c(C)c3)N=C2C)cc([N+](=O)[O-])c1O | inactive | – |
| CCCCNc1ncnc2c1cnn2-c1ccccc1 | inconclusive [cytotoxic, single point] | – |
| Cc1nc2ncccn2c1-c1csc(Nc2ccc(N(C)C)cc2)n1 | inconclusive [cytotoxic, full curve] | – |

| SMILES | Potency | activity, negative = less viability |
| --- | --- | --- |
| O=C(NC1CCCCC1)c1nn2c(C(F)(F)F)cc(-c3ccco3)nc2c1Br | inactive | – |
| CC(C)(C)[C@H]1COC(=O)[C@H](NC(=O)OCC2c3ccccc3-c3ccccc32)C/C=C\C[C@@H](CC(=O)N[C@@H](CO)Cc2ccccc2)C(=O)N1 | inconclusive [rising, full curve, poor fit] | – |
| CN(C)CCCNC(=O)C[C@H]1C[C@H](C(=O)N2CCCCC2)[C@@]2(C)c3[nH]c4cc(-c5ccco5)ccc4c3CCN2C1=O | inconclusive [cytotoxic, single point] | – |
| COc1ccccc1CN1CCC(CNS(=O)(=O)c2cc(-c3onc(C)c3C)ccc2OC)CC1 | active: 18.4 µM | – |
| Cc1cc(C(=O)CSc2nnc(N)s2)c(C)n1CCc1ccc(Cl)cc1 | inactive | – |
| COc1ccc(C(=O)CN2C(=O)NC(C)(c3ccccc3)C2=O)cc1OC (configuration not stated) | inactive | – |
| CC(Sc1nc2ccccc2s1)C(=O)NC1CCCc2ccccc21 (configuration not stated) | inactive | – |
| CCOCCCn1c(C)nc2c(c1=O)c1nc3ccccc3nc1n2CCC1=CCCCC1 | inconclusive [cytotoxic, single point] | – |
| O=C(O)CC/C(=N\Nc1ccccc1[N+](=O)[O-])c1cccs1 | inconclusive [cytotoxic, single point] | – |
| Cc1cc(NC(=O)CCSc2nc(-c3ccco3)cc(C(F)(F)F)n2)no1 | inconclusive [cytotoxic, single point] | – |
| CCN(CC)CCCNC(=S)N1CCN(c2nc(-c3ccccc3)cs2)CC1 | active: 16.4 µM | – |
| CC(C)CNS(=O)(=O)c1cc(C(=O)O)c(Cl)cc1Cl | inactive | – |
| C/C(CC(=O)Nc1ccc(N(C)C)cc1)=N\NC(=O)c1ccccc1O | active: 20.6 µM | – |
| COc1ccccc1N1CCN(CCCCNC(=O)c2ccc3ccccc3c2)CC1 | inconclusive [cytotoxic, single point] | – |
| COC(=O)Nc1nc(-c2ccccc2)c(C(=O)c2ccccc2)s1 | inconclusive [cytotoxic, full curve] | – |
| CCCS(=O)(=O)N1CCN(Cc2ccc3c(c2)c2ccccc2n3CC)CC1 | inconclusive [cytotoxic, partial curve] | – |
| CCc1cc(-c2n[nH]c(C)c2-c2nc3ccccc3n2C)c(O)cc1O | inconclusive [cytotoxic, single point] | – |
| Nc1nc(N)nc(-c2cccc(Cl)c2)n1 | inactive | – |
| COc1ccc(-c2ccc(F)cc2)cc1[C@H]1[C@H]2C=CC[C@@H](C)[C@@H]2C(=O)N1Cc1ccccc1 | inconclusive [cytotoxic, single point] | – |
| Cc1cccc(Nc2nc(-c3ccc(O)cc3O)cs2)n1 | inconclusive [cytotoxic, single point] | – |
| CCC(=O)C1=C(O)C(c2cccc(Oc3ccccc3)c2)CCC1=O (configuration not stated) | inactive | – |
| COc1ccc(-c2csc(Nc3ccc(Oc4ccccc4)cc3)n2)cc1 | inconclusive [cytotoxic, single point] | – |
| Cc1cc2nc(/C(C#N)=C/c3ccncc3)[nH]c2cc1C | inconclusive [cytotoxic, single point] | – |
| CCCC(=O)NC(NC(=S)Nc1ccc(N=Nc2ccccc2)cc1)C(Cl)(Cl)Cl (configuration not stated) | inconclusive [cytotoxic, single point] | – |
